Assay results from publication PMC10668032.
This is one part of the list. At the low end of the ranking the order means little.

Target: SIX1-Q177R homeodomain (UniProt Q15475)
Assay: universal protein binding microarray
Settings: Universal all-10-mer PBM (8x60K, AMADID 030236), 300 nM GST-tagged protein, Alexa Fluor 488 anti-GST; buffer, salt, pH and temperature not stated; high values mean tight binding; most listed sequences are background and not binding sites; double strand, one strand shown

Row | Sequence | binding signal
1 | ATTACTTC | -0.156 E-score
2 | AATCCCGC | -0.102 E-score
3 | CCTCGGCG | 0.0113 E-score
4 | ACACGACC | 0.417 E-score
5 | ATGACGCC | 0.172 E-score
6 | AGGATACT | 0.167 E-score
7 | GCAGAACA | 0.146 E-score
8 | CCTCTTGC | -0.147 E-score
9 | CACTAAAC | 0.195 E-score
10 | ACCACTTC | 0.0817 E-score
11 | AGCTGGAA | -0.175 E-score
12 | TTCTCAAA | -0.251 E-score
13 | AGGCCAAA | -0.196 E-score
14 | ATATTCTC | -0.0362 E-score
15 | CAGGCTTC | -0.271 E-score
16 | ATAACAGG | -0.0176 E-score
17 | CCGATCTA | -0.0594 E-score
18 | CCGCGGCA | -0.079 E-score
19 | CGGTGTTC | 0.476 E-score
20 | CTATTAGA | -0.094 E-score
21 | CTATTGAC | 0.0373 E-score
22 | CCGCAGCG | -0.0724 E-score
23 | ATAAGTAT | -0.111 E-score
24 | ACCCGTAG | 0.149 E-score
25 | ACGTCTTG | -0.037 E-score

Row | Sequence | binding signal
26 | CAACGTTA | -0.187 E-score
27 | CTCATTTA | -0.206 E-score
28 | CGCGAAAA | 0.0628 E-score
29 | ATGAGGGA | 0.00326 E-score
30 | AATATGCT | -0.221 E-score
31 | CCGAGTAG | 0.123 E-score
32 | CGGATTAC | 0.103 E-score
33 | CGACCTTC | -0.0704 E-score
34 | AGGGCATG | 0.0655 E-score
35 | CCGCCAGG | -0.0213 E-score
36 | CCGGTGTA | 0.486 E-score
37 | CAGCTCCG | -0.0751 E-score
38 | AGACCTCC | -0.152 E-score
39 | CCAGAGGG | -0.0214 E-score
40 | ACTACGCG | 0.0606 E-score
41 | ACTTAACT | -0.0249 E-score
42 | CCCTCCCG | 0.139 E-score
43 | TGGAATAA | -0.091 E-score
44 | CAAAGCGG | -0.126 E-score
45 | CTTAGTGA | -0.115 E-score
46 | ATAGGAAA | -0.134 E-score
47 | AGACCTCT | -0.159 E-score
48 | AGCCGAAA | -0.0444 E-score
49 | CGGTTGTA | -0.0492 E-score
50 | AACTACCG | -0.112 E-score

Row | Sequence | binding signal
51 | CTCTTATC | 0.0166 E-score
52 | ACCAAACC | 0.134 E-score
53 | CTTCAGCA | -0.239 E-score
54 | CACTTCGA | 0.127 E-score
55 | CTAACGGA | -0.0618 E-score
56 | CAGGACAA | -0.127 E-score
57 | AAGCCATA | -0.223 E-score
58 | ACGGCATA | -0.192 E-score
59 | AGTGAGTC | -0.0424 E-score
60 | CTGTATGC | -0.209 E-score
61 | GTTAATAA | -0.027 E-score
62 | ACTTACGC | 0.164 E-score
63 | AAGATCAT | -0.0882 E-score
64 | CCGAATAG | -0.123 E-score
65 | GCATTTGA | -0.112 E-score
66 | CAAAACTA | 0.0571 E-score
67 | GCGTCTCA | 0.0592 E-score
68 | ACTTTGTA | -0.0907 E-score
69 | GCGTAACA | 0.199 E-score
70 | GAATCAGA | -0.223 E-score
71 | AACCAGTA | -0.0806 E-score
72 | AATTGCCC | -0.21 E-score
73 | GTCATAAA | -0.118 E-score
74 | CTCTCTCA | 0.00782 E-score
75 | ACACTGTA | 0.351 E-score

Row | Sequence | binding signal
76 | CCAATAAC | -0.0801 E-score
77 | CCGATCCA | 0.188 E-score
78 | AAAATTGA | -0.175 E-score
79 | CTTCTCAC | -0.102 E-score
80 | CTGCTATC | -0.0997 E-score
81 | CACGTTGC | 0.0561 E-score
82 | ATGAATTC | -0.0691 E-score
83 | ACAATGTC | -0.12 E-score
84 | GCAACTAA | -0.0291 E-score
85 | AGCTGGCG | 0.0356 E-score
86 | CTCTGGAA | -0.0805 E-score
87 | CGTATCCC | 0.142 E-score
88 | CATGTTAA | -0.231 E-score
89 | ATGCTAGA | -0.197 E-score
90 | CAGAGTAA | 0.0237 E-score
91 | GAGTAGGA | -0.0751 E-score
92 | AGAATAAC | -0.0603 E-score
93 | GGACTACC | 0.0243 E-score
94 | CTTGGCCC | -0.271 E-score
95 | CGGAATAA | -0.0943 E-score
96 | AGGTTCAC | -0.176 E-score
97 | TCTACTCA | -0.028 E-score
98 | AAAAAGGT | -0.0279 E-score
99 | ATCGCATG | -0.142 E-score
100 | CTCCCTCA | -0.0496 E-score

Row | Sequence | binding signal
101 | GTATAGAA | -0.0205 E-score
102 | CCGACCAC | 0.192 E-score
103 | GCCCCTCC | 0.11 E-score
104 | AAAGCCGG | -0.145 E-score
105 | CCCGCTAA | -0.0616 E-score
106 | CAGTGAAG | -0.104 E-score
107 | GTTAGAAC | 0.0421 E-score
108 | GGCTCCAA | -0.173 E-score
109 | AGTGTGCC | 0.159 E-score
110 | ACGTTGCG | -0.142 E-score
111 | AATGCAAC | -0.0298 E-score
112 | GTACCAAC | 0.0882 E-score
113 | AGCGTACG | 0.105 E-score
114 | CCGTAAGA | -0.109 E-score
115 | AGGCACGA | -0.0282 E-score
116 | ATCGTAAT | -0.128 E-score
117 | AATTATCC | -0.0487 E-score
118 | TCTGTGCA | -0.135 E-score
119 | GTATCGGA | 0.254 E-score
120 | AATACTAT | -0.26 E-score
121 | TCCAAACA | 0.0943 E-score
122 | CGTTCCAA | -0.0101 E-score
123 | AAATTGCG | -0.0199 E-score
124 | AAGTATTG | 0.0199 E-score
125 | AGCGACAT | -0.095 E-score

Row | Sequence | binding signal
126 | CGTCATAC | 0.128 E-score
127 | CTGGGGTC | 0.229 E-score
128 | TGGATAAA | -0.096 E-score
129 | CTATATCC | 0.0435 E-score
130 | GAAAGGTA | -0.136 E-score
131 | ACGCGACT | 0.0834 E-score
132 | CTTTATGC | -0.0588 E-score
133 | ATCGGACG | -0.172 E-score
134 | CACTTTAG | 0.0962 E-score
135 | TACCGGCA | -0.091 E-score
136 | GAACCTCC | -0.0187 E-score
137 | GATAAAAA | -0.131 E-score
138 | CGCTGGGA | -0.0669 E-score
139 | GCTGGATA | 0.0148 E-score
140 | AGACGTAT | -0.237 E-score
141 | CTCTCCTA | -0.0625 E-score
142 | ATAATCTG | -0.24 E-score
143 | TGACATAA | 0.0542 E-score
144 | CGGGAGTA | 0.26 E-score
145 | AATGTGAC | -0.226 E-score
146 | CAAACGGA | -0.342 E-score
147 | GGGCGTAC | 0.131 E-score
148 | CGTTTCTA | 0.00713 E-score
149 | CCACGCTA | -0.155 E-score
150 | ACGAAGAC | 0.0283 E-score

Row | Sequence | binding signal
151 | ATGCTTAC | -0.18 E-score
152 | CTCATTAA | 0.047 E-score
153 | GAGGTCCA | -0.163 E-score
154 | ATCTGCAG | -0.0672 E-score
155 | CGCGCTAC | 0.15 E-score
156 | AGTGGACA | 0.149 E-score
157 | TAAGAAGA | -0.218 E-score
158 | AGTGGATG | -0.0627 E-score
159 | AGGGCATC | -0.191 E-score
160 | ATCTATTG | -0.18 E-score
161 | GAGTACTA | 0.0555 E-score
162 | AACCTCTG | -0.055 E-score
163 | AATACAAA | 0.0385 E-score
164 | GCCGGCCA | -0.121 E-score
165 | ATCCGGTC | 0.08 E-score
166 | CCTTATCC | -0.00249 E-score
167 | AAGTTTTC | -0.121 E-score
168 | ATAAGGAC | -0.12 E-score
169 | AGCTGAAA | -0.251 E-score
170 | ACTTAAAA | -0.345 E-score
171 | TCTAGGCA | -0.162 E-score
172 | ACTAACGG | 0.0282 E-score
173 | ACCTGAGG | 0.0472 E-score
174 | AAGGCAGA | -0.164 E-score
175 | CAGCGCCA | -0.104 E-score

Row | Sequence | binding signal
176 | CCGCATAC | 0.0975 E-score
177 | ATGATGAC | 0.0166 E-score
178 | ACCCCATA | 0.249 E-score
179 | AGCCCTGA | -0.106 E-score
180 | CGCGTCCC | -0.0913 E-score
181 | GATAGCCA | -0.279 E-score
182 | CGCTATTA | 0.066 E-score
183 | CGAGTTAG | -0.056 E-score
184 | TCAAATGA | -0.181 E-score
185 | AGACCTTG | -0.154 E-score
186 | AGTCAACA | 0.0535 E-score
187 | CATCCTTA | 0.0708 E-score
188 | TCCACGAA | -0.229 E-score
189 | TAAAGTTA | -0.108 E-score
190 | CCAATTCA | 0.0423 E-score
191 | CGCGCCAA | -0.0295 E-score
192 | TAAAATTA | -0.224 E-score
193 | GCATTAGC | -0.233 E-score
194 | CACGGAGG | 0.222 E-score
195 | AATGTAAG | -0.117 E-score
196 | ATCATAAC | 0.146 E-score
197 | CGCTAAAG | -0.319 E-score
198 | AGTAGTGA | 0.0251 E-score
199 | ATCGTGAA | -0.225 E-score
200 | GAGTTTCA | -0.0337 E-score

Row | Sequence | binding signal
201 | CGCATCCA | -0.0795 E-score
202 | GGTCTCAA | -0.0287 E-score
203 | CAATAACA | 0.133 E-score
204 | AAACGCGT | -0.112 E-score
205 | GGCCCTCA | -0.237 E-score
206 | AAGGTGGC | -0.135 E-score
207 | ACTATTAA | 0.0721 E-score
208 | CTGGATCC | 0.121 E-score
209 | CTTTAATA | -0.0622 E-score
210 | GGCGAACC | -0.12 E-score
211 | GAAGGATC | 0.117 E-score
212 | GCTCTCAA | -0.154 E-score
213 | GGAGTCGA | 0.227 E-score
214 | CACGGACC | 0.117 E-score
215 | ACATGGAG | 0.0903 E-score
216 | AGGTGAGG | -0.16 E-score
217 | GGCATTAA | 0.019 E-score
218 | GCAAGTGC | -0.141 E-score
219 | ATCCTGGC | -0.0482 E-score
